Reference: PubChem BioAssay AID1508624 (National Center for Advancing Translational Sciences (NCATS), 2021)
The whole screen tested about 48,000 compounds, of which about 120 (0.25%) were called active. Not shown: some 4% with an inconclusive outcome. Calls come from the whole dose curve; as a rule, active = well fitted activation curve with a large enough effect; inconclusive = small, poorly fitted or top-dose-only effect, or another doubt; inactive = no such curve, though single readings can be large or run the other way. The list shows a part of the results.

Assay: Primary qHTS for Identification of Small Molecule Activators of Huntingtin-Antisense Promoter Activity; note: nearly all actives have a fitted effect of over 55% in size
Settings: HEK293 HTT-AS promoter firefly luciferase reporter, 24 h; series mostly up to 57.5 µM; activity change, positive = activation: at the top concentration
Method in brief: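 Quantitative HTS used concentration series of up to 57.5 uM final on HEK293 luciferase reporter cells, 24 h at 37 degrees C. Readout was Dual-Glo firefly luminescence.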

Activity change, positive = activation, inactive:
Clc1ccc(NCc2nc3ccccc3n2CCOc2ccccc2)cc1 0.244%
O=C1C(O)=C(O)C(=O)C(O)=C1O -28%
COc1ccc(Cl)cc1NC(=O)Cn1c(=O)c2ccccc2n2nncc12 -0.66%
CCC(C(=O)Nc1ccc(C)c(Cl)c1)n1c(=O)c(-c2ccccc2NC(C)=O)nc2ccccc21 (stereo unspecified) -43.9%
COc1cc(CNCCSc2nnnn2C)ccc1OCc1ccc(Cl)cc1Cl -29%
Cc1ccc(NC(=O)Cn2nc3c(cc2=O)CCCC3)cc1Cl -11.5%
Cc1nccn1CC1CCc2c(c3ccccc3n2C)C1=O (stereo unspecified)
CCN(C(=O)CSc1nc2ccccc2nc1Cc1ccc(F)cc1)c1cccc(C)c1 -22.3%
NC(=O)c1cc[n+](CC2=C(C(=O)[O-])N3C(=O)[C@@H](NC(=O)Cc4cccs4)[C@H]3SC2)cc1 5.43%
COc1ccc(C(=O)Nc2nc3ccccc3n2CCOc2ccc(Cl)cc2)cc1 1.97%
CCOc1ccc(N(CC)C(=O)CCc2nc(-c3ccccc3F)no2)cc1 -9.66%
COc1cccc(NC(=O)Cn2nc(C)c3c(C)n(-c4ccccc4)nc3c2=O)c1 -18.1%
CCC(Sc1nnc(-c2ccc(OC)c(OC)c2)c(-c2ccc(OC)c(OC)c2)n1)C(=O)NC1CCCC1 (stereo unspecified) -7.86%
Cc1cccn2c(=O)cc(CSc3nnc(NC(=O)c4ccc(F)cc4)s3)nc12 2.56%
O=C(NCCc1ccccc1)c1ccc(Cn2c(SCc3ccccc3)nc3cccnc32)cc1 17.1%
CCCOc1ccc(Oc2nc(NCC(C)C)nc(N(C)C)n2)nn1 -28.6%
CCc1ccc(NC(=O)C(Cc2ccccc2)NS(=O)(=O)c2ccc3c(c2)c(=O)n(C)c(=O)n3C)cc1 (stereo unspecified) -16.1%
CC(=O)NC[C@H]1CN(c2ccc(N3CCOCC3)c(F)c2)C(=O)O1 -1.96%
CCOc1ccc(C(=O)Nc2ccc(-n3nncc3-c3ccc(OC)cc3)cc2)cc1 -16.2%
COc1ccccc1NC(=O)C1=C(C)Nc2nc(-c3ccco3)nn2C1c1ccccc1F (stereo unspecified) -14.3%
Cn1nnnc1SCCNCc1ccc(Cl)c(Cl)c1 -9.11%
CCCc1cc(=O)[nH]c(Nc2ccc(OCC)cc2)n1 -21.8%
Cc1cccc(S(=O)(=O)c2cn(C)c3cc(N4CCN(c5ccccc5)CC4)c(F)cc3c2=O)c1 12%
Cc1ccc(Cn2c(C)c3cnn(CC(=O)NCCc4ccc(Cl)cc4)c(=O)c3c2C)cc1 -13.1%
COc1cccc(CCNC(=O)c2cnc3sc(N4CCOCC4)nn3c2=O)c1 -6.42%
CCc1ccc(NC(=O)Cn2cc(S(=O)(=O)c3ccc(F)cc3)c(=O)c3cc(OC)ccc32)cc1 -41.8%
CC(=O)c1ccc(NC(=O)CCc2c(C)nn(-c3ccc4nnc(C)n4n3)c2C)cc1 -7.78%
COc1ccc(NC(=O)C2CCC(CNS(=O)(=O)c3ccc(Br)s3)CC2)c(OC)c1 (stereo unspecified) -23.7%
CC(C)CC(C(=O)NCC1CCN(Cc2ccc(F)cc2)CC1)N1Cc2ccccc2C1=O (stereo unspecified) -6.19%
COc1cc(NC(=O)N2CCC(CN3CCCCCC3)CC2)cc(OC)c1OC -3.06%
O=C(CSc1nc(-c2ccccc2)nc2cc(=O)[nH]n12)Nc1ccccc1 -26.7%
CCc1nc(-c2ccc(C)c(S(=O)(=O)N3CCN(c4ccc(C(C)=O)cc4)CC3)c2)no1 -37.9%
Cc1ccccc1C(=O)N1c2ncnn2C2(CCCCC2)[C@@H]2CCCC[C@@H]21 -18%
COC(=O)C1=C(C)N(C(C)C)C(=O)C1(NC(=O)c1ccc(C(C)(C)C)cc1)C(F)(F)F (stereo unspecified) 6.77% [at 11.5 µM, percent change from vehicle, -100% = no light]
Cc1ccccc1Cn1c(=O)n(CCC(=O)NCc2ccco2)c(=O)c2sccc21 -10.3%
CC(C)Nc1nc2c(-c3cccc(Br)c3)nnn2c2ccccc12 22.5%
O=C(NCCn1cc(SCc2ccc(F)cc2)c2ccccc21)c1cccs1 -47.7%
CCn1cc(C(=O)N2CCN(c3cc(Cl)ccc3C)CC2)c(=O)c2cc(S(=O)(=O)N3CCCCC3)ccc21 -1.16% [at 11.5 µM, percent change from vehicle, -100% = no light]
COCCCN1C(=O)c2oc3ccccc3c(=O)c2C12C(=O)N(C)c1ccccc12 (stereo unspecified) -8.61%
COc1ccc(CC(=O)N2CCc3cc(OC)c(OC)cc3C2COc2ccc3c(C)cc(=O)oc3c2)cc1OC (stereo unspecified) 0%
O=C(COc1ccccc1F)Nc1ccc(OCc2cc(=O)n3ccccc3n2)cc1 12.4%
CCOc1ccc(NC(=O)CCc2c(C)nc3c(-c4ccccc4)c(C)nn3c2C)cc1 -21.3%
COC(=O)c1ccc(Cn2c(SCc3ccc(F)cc3)nc3ccncc32)cc1 -9.75%
O=c1ccc2cc(S(=O)(=O)Nc3ccc(OC(F)(F)F)cc3)ccc2[nH]1 -15.3%
Cc1ccc(CNC(=O)CSC2=Nc3ccccc3N=C(c3ccc(F)cc3)C2)cc1 -22.5%
COc1ccc(CNC(=O)c2ccc(NC(=O)N3CCSc4ncccc43)cc2)cc1 -5.34%
